These results are taken from patent US20090325873A1, “HUMAN GLP-1 MIMETIBODIES, COMPOSITIONS, METHODS AND USES” (CENTOCOR, INC., priority 2006, published 2009).

For one data set, the system named is control HEK293 cells. Put plainly: FACS binding assay, control HEK293 cells. The settings on record: 20 nM, flow cytometry. As to the method: (§1) The activity of a GLP-1 mimetibody was tested in an in vitro FACS binding assay. To determine whether the GLP-1 MMB binds the GLP-1R, HEK293 cells (1×10^6 cells) over-expressing the GLP-1R were incubated with GLP-1 MMB of SEQ ID NO: 69 (20 nM) for 2 hours at 4° C. The cells were washed, and a fluorescently labeled secondary detection antibody (1 μg/mL goat anti-human IgG, Fc gamma specific) was added for 30 minutes at 4° C. The fluorescence intensity of the cells was monitored via flow cytometry.
(In general: Flow cytometry measures light scatter and fluorescence of single cells or particles in a stream.)

Another data set addresses T1, GLP-1R (Homo sapiens, UniProt P43220).
T1 construct: expressed in transfected cells; host or cells: HEK293
Put plainly: FACS binding assay, HEK293 cells over-expressing the GLP-1R. The settings on record: 20 nM, 2 hours at 4° C., flow cytometry. As to the method:
as §1

In another data set the target is T2, DPP-IV (Homo sapiens, UniProt P27487).
T2 construct: purchased R&D Systems
T2 sequence (P27487 whole entry, species assumed): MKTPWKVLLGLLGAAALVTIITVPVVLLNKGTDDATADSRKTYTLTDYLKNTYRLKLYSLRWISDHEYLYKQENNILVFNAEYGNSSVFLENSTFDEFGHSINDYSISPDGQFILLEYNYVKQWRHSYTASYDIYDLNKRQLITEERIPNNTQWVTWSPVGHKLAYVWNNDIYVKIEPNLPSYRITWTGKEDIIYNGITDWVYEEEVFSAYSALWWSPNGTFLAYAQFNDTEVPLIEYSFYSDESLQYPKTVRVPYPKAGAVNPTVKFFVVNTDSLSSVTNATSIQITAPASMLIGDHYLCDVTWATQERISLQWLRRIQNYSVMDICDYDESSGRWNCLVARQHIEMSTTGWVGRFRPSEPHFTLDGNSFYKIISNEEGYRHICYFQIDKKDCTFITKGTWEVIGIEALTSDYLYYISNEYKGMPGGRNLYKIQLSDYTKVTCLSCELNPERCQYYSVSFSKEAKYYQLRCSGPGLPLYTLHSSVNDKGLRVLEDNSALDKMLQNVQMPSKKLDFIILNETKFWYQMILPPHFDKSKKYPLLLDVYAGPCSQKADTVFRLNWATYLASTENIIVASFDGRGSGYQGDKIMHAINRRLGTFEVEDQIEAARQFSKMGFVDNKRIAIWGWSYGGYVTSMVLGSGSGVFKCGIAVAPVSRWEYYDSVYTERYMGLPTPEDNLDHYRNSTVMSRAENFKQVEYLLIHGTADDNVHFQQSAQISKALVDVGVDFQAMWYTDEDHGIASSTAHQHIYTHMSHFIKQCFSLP
Put plainly: DPP-IV cleavage assay. Format: in vitro ADME. The settings on record: 1.2 nM, DPP-IV 1 μg/mL, room temperature, 0-40 minutes, GLP-1 Active ELISA. As to the method:
Since GLP-1 is rapidly inactivated by DPP-IV, an in vitro assay was established to quantitate intact (i.e. uncleaved) GLP-1 MMB of SEQ ID NO: 69. Briefly, GLP-1 MMB of SEQ ID NO: 69 or peptide (1.2 nM) was incubated at room temperature with DPP-IV (1 μg/mL, R&D Systems). After various times (0, 5, 10, 15, 20, 30, 40 minutes), a DPP-IV inhibitor (100 μM, Linco) was added to quench the reaction. The amount of intact GLP-1 MMB of SEQ ID NO: 69 or peptide was measured using the GLP-1 Active ELISA (Linco) and the GLP-1 MMB of SEQ ID NO: 69 or peptides for the respective standard curves.
On the technique in general: ELISA stands for enzyme-linked immunosorbent assay.

T1 sequence (P43220 24-463, species assumed): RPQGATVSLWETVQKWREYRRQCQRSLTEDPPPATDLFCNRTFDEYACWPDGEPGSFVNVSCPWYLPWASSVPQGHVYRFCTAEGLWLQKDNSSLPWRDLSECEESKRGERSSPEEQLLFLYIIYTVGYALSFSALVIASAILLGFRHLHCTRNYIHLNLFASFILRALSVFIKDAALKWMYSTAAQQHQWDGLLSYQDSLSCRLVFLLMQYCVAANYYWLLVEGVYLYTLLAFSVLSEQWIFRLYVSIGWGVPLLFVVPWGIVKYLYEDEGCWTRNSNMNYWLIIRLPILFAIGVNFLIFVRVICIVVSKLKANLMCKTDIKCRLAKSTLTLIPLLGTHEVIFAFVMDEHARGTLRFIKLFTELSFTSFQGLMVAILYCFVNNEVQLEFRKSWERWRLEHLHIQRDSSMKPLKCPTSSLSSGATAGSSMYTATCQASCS

B1: GLP-1 MMB of SEQ ID NO: 69: wild-type GLP-1 sequence incorporated into a mimetibody scaffold (protein, listed as Homo sapiens)
chain: HAEGTFTSDVSSYLEGQAAKEFIAWLVKGRGGGSGGGSGTLVTVSS[human IgG4 Fc with S228P F234A L235A (EU numbers) omitted]
Regarding B1, in the data set on control HEK293 cells, the “binding to control HEK293 cells” value is on record as “does not bind”. In the data set with GLP-1R, the “binding to HEK293 cells over-expressing the GLP-1R” value was “binds”. Further, the “resistance to cleavage by DPP-IV” value in the data set with DPP-IV was “significantly more resistant to cleavage by DPP-IV”.
